From PMC2576245
No constants are given. Whether binding was seen depends on the method and setting. For some of these results: In cells and extracts the contact can be indirect. Some entries that bind do so weakly or less than the wild type. For some of these results: Tags and fused reporters may be left off the sequences shown. Blank lines part the entries; values can stand above or below the molecule they belong to.

Amino acid sequences for entries named in this document (tags omitted). Residues count along the entry.
UniProt P05556: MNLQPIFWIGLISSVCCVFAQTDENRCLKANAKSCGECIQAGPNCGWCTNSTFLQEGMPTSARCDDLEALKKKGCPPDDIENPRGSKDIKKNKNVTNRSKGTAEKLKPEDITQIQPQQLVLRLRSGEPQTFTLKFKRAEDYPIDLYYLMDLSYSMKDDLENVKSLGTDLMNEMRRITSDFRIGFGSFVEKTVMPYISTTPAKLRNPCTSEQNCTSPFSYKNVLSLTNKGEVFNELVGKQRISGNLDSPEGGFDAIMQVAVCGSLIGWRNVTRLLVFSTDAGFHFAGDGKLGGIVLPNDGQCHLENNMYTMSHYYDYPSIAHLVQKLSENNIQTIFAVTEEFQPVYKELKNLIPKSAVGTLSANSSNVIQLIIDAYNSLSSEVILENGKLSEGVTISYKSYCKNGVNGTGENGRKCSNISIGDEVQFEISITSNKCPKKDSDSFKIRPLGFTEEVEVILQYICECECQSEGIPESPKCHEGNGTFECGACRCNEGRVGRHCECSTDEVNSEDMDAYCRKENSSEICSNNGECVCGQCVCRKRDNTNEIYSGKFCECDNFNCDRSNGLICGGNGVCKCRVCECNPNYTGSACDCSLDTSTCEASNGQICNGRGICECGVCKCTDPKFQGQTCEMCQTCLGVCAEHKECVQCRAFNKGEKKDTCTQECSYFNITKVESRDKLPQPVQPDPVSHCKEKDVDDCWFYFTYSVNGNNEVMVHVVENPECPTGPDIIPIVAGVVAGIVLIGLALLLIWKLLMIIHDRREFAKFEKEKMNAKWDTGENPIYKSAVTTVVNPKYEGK
UniProt P09055, residues 21-728: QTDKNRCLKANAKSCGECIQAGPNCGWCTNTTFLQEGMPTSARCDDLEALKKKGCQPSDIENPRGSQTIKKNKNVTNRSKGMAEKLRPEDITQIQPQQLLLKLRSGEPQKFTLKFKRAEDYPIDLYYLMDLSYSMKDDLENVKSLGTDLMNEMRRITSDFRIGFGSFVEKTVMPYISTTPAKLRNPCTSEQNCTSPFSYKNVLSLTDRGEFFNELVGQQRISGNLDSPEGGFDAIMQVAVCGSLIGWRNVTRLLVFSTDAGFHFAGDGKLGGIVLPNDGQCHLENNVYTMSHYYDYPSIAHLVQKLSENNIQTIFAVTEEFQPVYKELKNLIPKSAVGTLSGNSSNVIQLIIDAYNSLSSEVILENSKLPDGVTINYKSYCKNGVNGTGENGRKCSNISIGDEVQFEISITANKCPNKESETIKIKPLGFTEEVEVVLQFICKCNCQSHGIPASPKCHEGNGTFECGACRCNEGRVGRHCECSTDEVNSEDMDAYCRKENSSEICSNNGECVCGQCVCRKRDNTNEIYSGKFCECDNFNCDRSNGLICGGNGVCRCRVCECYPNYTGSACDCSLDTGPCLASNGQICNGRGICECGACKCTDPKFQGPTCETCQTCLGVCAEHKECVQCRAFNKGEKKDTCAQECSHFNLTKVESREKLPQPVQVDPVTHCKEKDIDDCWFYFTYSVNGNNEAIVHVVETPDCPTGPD
UniProt P49134, residues 21-799: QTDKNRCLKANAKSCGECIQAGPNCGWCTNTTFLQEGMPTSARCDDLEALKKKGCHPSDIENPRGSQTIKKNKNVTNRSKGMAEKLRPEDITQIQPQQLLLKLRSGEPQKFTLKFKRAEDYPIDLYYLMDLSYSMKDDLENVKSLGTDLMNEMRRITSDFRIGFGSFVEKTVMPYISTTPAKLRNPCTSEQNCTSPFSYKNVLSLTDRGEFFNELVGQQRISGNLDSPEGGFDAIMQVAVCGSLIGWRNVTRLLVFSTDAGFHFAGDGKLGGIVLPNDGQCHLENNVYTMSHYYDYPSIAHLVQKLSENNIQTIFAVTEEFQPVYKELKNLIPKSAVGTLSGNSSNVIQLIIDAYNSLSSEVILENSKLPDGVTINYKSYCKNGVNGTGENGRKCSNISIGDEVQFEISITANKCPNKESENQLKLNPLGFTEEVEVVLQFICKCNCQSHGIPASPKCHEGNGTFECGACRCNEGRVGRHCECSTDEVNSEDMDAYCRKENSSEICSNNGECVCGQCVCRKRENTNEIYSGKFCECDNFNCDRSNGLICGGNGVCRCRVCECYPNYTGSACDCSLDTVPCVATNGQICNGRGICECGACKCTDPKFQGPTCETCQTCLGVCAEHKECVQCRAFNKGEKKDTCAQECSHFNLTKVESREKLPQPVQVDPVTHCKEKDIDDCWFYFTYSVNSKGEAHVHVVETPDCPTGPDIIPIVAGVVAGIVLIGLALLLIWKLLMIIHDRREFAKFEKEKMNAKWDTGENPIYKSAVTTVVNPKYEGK
UniProt P08138, residues 29-427: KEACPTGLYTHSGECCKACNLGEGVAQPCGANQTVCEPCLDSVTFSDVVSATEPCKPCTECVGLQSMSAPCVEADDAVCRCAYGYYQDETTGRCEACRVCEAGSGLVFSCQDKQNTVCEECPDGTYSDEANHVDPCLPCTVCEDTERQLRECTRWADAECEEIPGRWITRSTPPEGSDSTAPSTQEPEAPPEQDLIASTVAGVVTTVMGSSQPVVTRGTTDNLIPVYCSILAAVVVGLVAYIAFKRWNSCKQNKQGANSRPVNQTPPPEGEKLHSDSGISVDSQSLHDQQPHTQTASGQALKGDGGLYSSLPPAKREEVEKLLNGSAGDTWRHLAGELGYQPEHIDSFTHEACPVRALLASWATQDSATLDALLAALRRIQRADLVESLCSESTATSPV
UniProt Q96FE5, residues 42-620: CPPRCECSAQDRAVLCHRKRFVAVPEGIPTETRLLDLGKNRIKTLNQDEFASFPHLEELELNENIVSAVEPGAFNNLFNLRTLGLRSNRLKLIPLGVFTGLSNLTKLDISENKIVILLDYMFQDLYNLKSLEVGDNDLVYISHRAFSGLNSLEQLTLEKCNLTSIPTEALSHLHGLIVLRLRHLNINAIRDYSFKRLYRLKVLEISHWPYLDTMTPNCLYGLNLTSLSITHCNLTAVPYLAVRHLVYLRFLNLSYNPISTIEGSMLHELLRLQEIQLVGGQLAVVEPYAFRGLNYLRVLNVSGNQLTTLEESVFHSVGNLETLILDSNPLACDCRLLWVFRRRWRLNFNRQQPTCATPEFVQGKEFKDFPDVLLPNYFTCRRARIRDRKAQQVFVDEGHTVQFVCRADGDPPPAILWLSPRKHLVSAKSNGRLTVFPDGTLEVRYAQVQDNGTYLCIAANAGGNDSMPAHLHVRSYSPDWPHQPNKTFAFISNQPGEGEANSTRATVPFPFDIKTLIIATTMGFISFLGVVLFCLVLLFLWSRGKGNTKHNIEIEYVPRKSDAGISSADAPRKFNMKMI

Key:
[1] = target: β1-integrin, endogenous in HEK293 cells (human (endogenous in HEK293)) (UniProt P05556); assay: co-IP; HEK293 cells transfected with NgR, p75, TROY or Lingo-1, stimulated with MAG (5 μg/ml) or medium; immunoprecipitated with anti-β1-integrin antibodies and blotted for the respective component
[2] = target: β1-integrin, endogenous in HEK293 cells (human (endogenous in HEK293)) (UniProt P05556); assay: co-IP; HEK293 cells (transfected as in a4) stimulated with MAG (5 μg/ml); immunoprecipitated with anti-β1-integrin antibodies, reblotted for Fc; only the binder purified
[3] = target: GST-β1 (ECD) fusion protein, GST fused to the extracellular domain of β1-integrin (mouse) (UniProt P09055); assay: pull-down; purified GST-β1 (ECD) on glutathione beads; native Fc fragment (2 μg/ml) or MAG-Fc (2 μg/ml) added overnight at 4°C; blot for the Fc fragment; cell free; both purified
[4] = target: β1-integrin, endogenous in primary hippocampal neurons (rat (endogenous in primary hippocampal neurons)) (UniProt P49134); assay: co-IP; primary hippocampal cultures treated with wild-type MAG-Fc, mutant MAG-Fc (KGE) or native Fc fragment (2.0 μg/ml MAG), lysed in 1% Triton X-100, 1% Nonidet P-40, 150 mM NaCl, 10 mM Tris pH 7.4; immunoprecipitated with antibodies against β1-integrin and blotted for human Fc, or vice versa; also after PI-PLC (1 unit/ml, 30 min, 37°C; MAG 1 μg/ml, 15 min); only the binder purified

binding [1]: no binding
Molecule: p75 (from UniProt P08138 29-427) (receptor)

binding [1]: no binding
B2: TROY (receptor, UniProt Q9NS68 30-423)
chain: ESGDCRQQEFRDRSGNCVPCNQCGPGMELSKECGFGYGEDAQCVTCRLHRFKEDWGFQKCKPCLDCAVVNRFQKANCSATSDAICGDCLPGFYRKTKLVGFQDMECVPCGDPPPPYEPHCASKVNLVKIASTASSPRDTALAAVICSALATVLLALLILCVIYCKRQFMEKKPSWSLRSQDIQYNGSELSCFDRPQLHEYAHRACCQCRRDSVQTCGPVRLLPSMCCEEACSPNPATLGCGVHSAASLQARNAGPAGEMVPTFFGSLTQSICGEFSDAWPLMQNPMGGDNISFCDSYPELTGEDIHSLNPELESSTSLDSNSSQDLVGGAVPVQSHSENFTAATDLSRYNNTLVESASTQDALTMRSQLDQESGAVIHPATQTSLQVRQRLGSL

Further lines, the molecule ahead of its results:

Molecule: Lingo-1 (from UniProt Q96FE5 42-620) (receptor)
binding [1]: no binding

B1: MAG-Fc, recombinant MAG consisting of the MAG extracellular domain fused to human Fc (wild type, RGD) (Fc fusion, UniProt P07722 20-516)
chain: GHWGAWMPSSISAFEGTCVSIPCRFDFPDELRPAVVHGVWYFNSPYPKNYPPVVFKSRTQVVHESFQGRSRLLGDLGLRNCTLLLSTLSPELGGKYYFRGDLGGYNQYTFSEHSVLDIINTPNIVVPPEVVAGTEVEVSCMVPDNCPELRPELSWLGHEGLGEPTVLGRLREDEGTWVQVSLLHFVPTREANGHRLGCQAAFPNTTLQFEGYASLDVKYPPVIVEMNSSVEAIEGSHVSLLCGADSNPPPLLTWMRDGMVLREAVAESLYLDLEEVTPAEDGIYACLAENAYGQDNRTVELSVMYAPWKPTVNGTVVAVEGETVSILCSTQSNPDPILTIFKEKQILATVIYESQLQLELPAVTPEDDGEYWCVAENQYGQRATAFNLSVEFAPIILLESHCAAARDTVQCLCVVKSNPEPSVAFELPSRNVTVNETEREFVYSERSGLLLTSILTLRGQAQAPPRVICTSRNLYGTQSLELPFQGAHRLMWAKIGP
binding [2]: binds
binding [3]: binds
binding [4]: binds

B3: Nogo-66 receptor (NgR) (receptor, UniProt Q9BZR6 27-447)
chain: CPGACVCYNEPKVTTSCPQQGLQAVPVGIPAASQRIFLHGNRISHVPAASFRACRNLTILWLHSNVLARIDAAAFTGLALLEQLDLSDNAQLRSVDPATFHGLGRLHTLHLDRCGLQELGPGLFRGLAALQYLYLQDNALQALPDDTFRDLGNLTHLFLHGNRISSVPERAFRGLHSLDRLLLHQNRVAHVHPHAFRDLGRLMTLYLFANNLSALPTEALAPLRALQYLRLNDNPWVCDCRARPLWAWLQKFRGSSSEVPCSLPQRLAGRDLKRLAANDLQGCAVATGPYHPIWTGRATDEEPLGLPKCCQPDAADKASVLEPGRPASAGNALKGRVPPGDSPPGNGSGPRHINDSPFGTLPGSAEPPLTAVRPEGSEPPGFPTSGPRRRPGCSRKNRTRSHCRLGQAGSGGGGTGDSEGS
binding [1]: no binding
